Measured values published in PubChem BioAssay AID588855 (National Center for Advancing Translational Sciences (NCATS), 2011).
Out of some 410,000 compounds screened, about 5,000 (1.2%) were called active. The shares of active, inactive and inconclusive entries below differ from those in the screen. The call rests on the fitted dose curve; in most records, active means well fitted inhibition curve with a large enough effect; inconclusive means small, poorly fitted or top-dose-only effect; inactive means no such curve, though single readings can be large or run the other way. Potencies beside an inconclusive call are fits to weak or partial responses and may not hold up. Peptide text beside a SMILES is read from it. * marks the point of attachment. Cbz = O=C(OCc1ccccc1)*

Assay: qHTS for Inhibitors of TGF-b; further: nearly all actives have a fitted effect of over 65% in size
Settings: HepG2 CAGA-GFP TGF-b/SMAD3 reporter, GFP fluorescence, 18 h, TGF-beta stimulated, 500 pg/mL final; series mostly up to 46.1 µM
Summary of the method: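 TGF-beta reporter screen: HEPG2 CAGA-GFP, 1% FBS, 500 pg/mL TGF-beta final, 18 h; per-cell GFP summed per well; curves fitted and categorized by class.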
Potency means the concentration at half of the fitted maximal effect; tags describe the fitted curve by direction and shape.

| SMILES | Potency |
| --- | --- |
| COC(=O)[C@H](C)N(Cc1ccc(Cl)c(Cl)c1)S(=O)(=O)CCN1CCN(c2ccccc2)CC1 | active: 11.2 µM |
| CCN1CCc2c(C#N)c(N3CCOCC3)nc(NCc3ccccc3)c2C1 | inconclusive: 35.5 µM [inhibitor, partial curve, poor fit] |
| Cc1cc(C)c2nc(NC(=O)[C@@H](NC(=O)c3cccc(S(=O)(=O)N4CCOCC4)c3)C(C)C)sc2c1 | inconclusive: 3.98 µM [inhibitor, full curve, poor fit] |
| COc1ccc(C(=O)CCN(C)C)c2ccccc12 | active: 6.31 µM |
| Cc1cccc(CN2C(=O)c3ccccc3S(=O)(=O)c3ccc(C(=O)N4CCN(c5cc(C)ccc5C)CC4)cc32)c1 | inconclusive: 0.112 µM [inhibitor, full curve, poor fit] |
| O=C(/C=C/c1ccc([N+](=O)[O-])s1)N1CCCC1 | active: 11.2 µM |
| Cc1ccc(C(=O)N/N=C\c2ccc(-c3ccc([N+](=O)[O-])cc3)o2)cn1 | inactive |
| COc1ccc(CCNC(=O)Nc2nc(C(N)CCc3ccccc3)cs2)cc1OC (centres undefined) | inconclusive: 31.6 µM [inhibitor, single point] |
| COc1ccc(C2CC(c3cccc([N+](=O)[O-])c3)=NN2/C(C)=C/C(C)=O)cc1 (centres undefined) | inactive |
| CCc1nc2ccc(C(=O)Nc3cccc(OCC(=O)N(C)C)c3)cn2c1N(C)Cc1cc2ccccc2s1 | inconclusive: 11.2 µM [inhibitor, partial curve, poor fit] |
| CC(C)n1ncc2c(C(=O)Nc3ccc(S(N)(=O)=O)cc3)cc(C3CC3)nc21 | inactive |
| COc1ccc(CC(=O)Nc2cccc(-c3nnc(-c4ccccc4)o3)c2)cc1OC | inconclusive: 17.8 µM [inhibitor, single point] |
| O=C(Nc1ccc(O)cc1)c1cc2n(n1)C(C(F)(F)F)CC(c1ccco1)N2 (centres undefined) | inconclusive: 20 µM [inhibitor, single point] |
| CCN(CC)c1ccc(C(=O)NCc2ccc3c(c2)CCN3C(C)=O)cc1 | inconclusive: 11.2 µM [inhibitor, partial curve, poor fit] |
| Cc1cc(C)c2c(-n3cccc3)c(C(=O)NCCc3ccccc3)sc2n1 | inactive |
| CCOC(=O)c1sc(/S(C)=N\S(=O)(=O)c2cccc(Cl)c2)c2c1CCC=C2 (centres undefined) | inconclusive: 35.5 µM [inhibitor, single point] |
| CCOC(=O)c1c(CSc2ccsc2)n(C)c2cc(Br)c(O)c(CN(C)C)c12 | inconclusive: 11.2 µM [inhibitor, partial curve, poor fit] |
| Cc1cccc(-n2nc3c(c2NC(=O)C(C)C)CS(=O)(=O)C3)c1C | inactive |
| CC(C(=O)Nc1ccccc1C(F)(F)F)n1nc(-c2ccccc2)c2c(c1=O)CCCC2 (centres undefined) | inconclusive: 22.4 µM [inhibitor, single point] |
| Cc1cccc(N2CCN(c3ccc(C(=O)O)cc3NC(=O)c3ccccc3F)CC2C)c1 (centres undefined) | inconclusive: 7.94 µM [inhibitor, partial curve, poor fit] |
| COC1=C(Nc2ccc(C)cc2)C(=O)c2ccccc2C1=O | inconclusive: 28.2 µM [inhibitor, partial curve, poor fit] |
| CCn1c(C(=O)O)c(CC(=O)NC2CCCCCC2)c2ccccc21 | inactive |

| SMILES | Potency |
| --- | --- |
| CCCCCCN1C[C@H](n2cc(C3CC3)nn2)[C@@H](O)C[C@@H]1c1ccccc1 | inconclusive: 35.5 µM [inhibitor, single point] |
| C[C@@H]1ON(C)[C@H]2C[C@H]3c4[nH]c5ccc(-c6ccc7c(c6)OCO7)cc5c4CCN3C[C@@H]12 | inconclusive: 35.5 µM [inhibitor, single point] |
| O=C1c2[nH]nc(-c3ccccc3O)c2C(c2ccc(F)cc2)N1Cc1ccco1 (centres undefined) | inconclusive: 35.5 µM [inhibitor, single point] |
| COc1ccc(N2CCN(C(=O)CCn3nnc4ccccc43)CC2)cc1 | inconclusive: 3.16 µM [inhibitor, single point] |
| O=C(Nc1cccc(S(=O)(=O)c2cccc(NC(=O)c3ccco3)c2)c1)c1ccco1 | inconclusive: 1.12 µM [inhibitor, partial curve, poor fit] |
| COc1ccc(-c2csc(N(Cc3ccco3)C(=O)c3cccs3)n2)cc1 | inactive |
| Cc1cc(O)c(S(=O)(=O)c2ccccc2)c(C)c1NS(=O)(=O)c1ccccc1 | inconclusive: 8.91 µM [inhibitor, partial curve, poor fit] |
| Clc1ccc(CSc2nc3ncccc3[nH]2)cc1 | inconclusive: 35.5 µM [inhibitor, single point] |
| Cc1ccc(NC(=O)Cc2ccc(NC(=O)N3CCCCc4ccccc43)cc2)cc1 | inconclusive: 35.5 µM [inhibitor, single point] |
| CC(C)=NNc1cnnc2ccc([N+](=O)[O-])cc12 | inconclusive: 11.2 µM [inhibitor, partial curve] |
| O=C(O)CCN1c2ccccc2Sc2ccccc21 | inactive |
| CCCOc1ccc(C(=O)C(CN2CCCC2)c2ccccc2)cc1 (centres undefined) | inconclusive: 2.82 µM [inhibitor, partial curve, poor fit] |
| O=C(Nc1nonc1-c1ccc(Br)cc1)c1ccco1 | inactive |
| CC1(C)CC[C@]2(C(=O)O[C@@H]3OC(CO)[C@@H](O)[C@H](O)[C@H]3O)CC[C@]3(C)C(=CCC4[C@@]5(C)CC[C@H](O[C@@H]6OC(C(=O)O)[C@@H](O)[C@H](O)[C@H]6O)C(C)(C)C5CC[C@]43C)[C@@H]2C1 (some centres undefined) | inconclusive: 22.4 µM [inhibitor, single point] |
| CCOCc1cc(C2NC(=O)NC(C)=C2C(=O)OCC)ccc1OC (centres undefined) | inconclusive: 35.5 µM [inhibitor, single point] |
| Cc1cccc(C)c1N1CCN(c2ccc3nnc(C(F)(F)F)n3n2)CC1 | inconclusive: 22.4 µM [inhibitor, single point] |
| Cc1nc(NC2=NCN(Cc3cccnc3)CN2)nc2ccccc12 | inactive |
| O=C(CSc1nnnn1C1CCCCC1)N1c2ccccc2Sc2ccccc21 | inconclusive: 0.112 µM [inhibitor, full curve, poor fit] |
| O=C(CC(NC(=O)c1ccccc1)c1ccccc1)OCc1nc(-c2cccc(Cl)c2)no1 (centres undefined) | inactive |
| COC(=O)C1CCCN1C(=O)C1CCCN1C(=O)CNC(=O)OCc1ccccc1 (stereo not drawn) (Cbz-Gly-Pro-Pro-OMe; configuration not given here) | inconclusive: 6.31 µM [inhibitor, single point] |
| COc1cc(OC)c(C(=O)NC2CCCc3ccccc32)cc1OC (centres undefined) | inconclusive: 3.16 µM [inhibitor, full curve] |
| O=C(Nc1ccc(F)cc1)Nc1ccc(N2CCCC2)c(S(=O)(=O)Nc2ccccc2Cl)c1 | active: 3.98 µM |

| SMILES | Potency |
| --- | --- |
| S=c1[nH]nc(-c2cccc(Cl)c2)n1/N=C/c1ccc(-c2ccccc2Br)o1 | inconclusive: 35.5 µM [inhibitor, single point] |
| COc1ccccc1Nc1nnc(SCC(=O)Nc2cc(C)on2)s1 | inconclusive: 3.16 µM [inhibitor, single point] |
| CCn1c(C(=O)NCCc2ccc(OC)c(OC)c2)cc2sc(Cl)cc21 | inconclusive: 10 µM [inhibitor, partial curve] |
| O=C(c1ccccc1)N1CCN(c2ccc(NCc3ccc4c(c3)OCO4)cc2)CC1 | inconclusive: 35.5 µM [inhibitor, single point] |
| O=C(Nc1nnc(COc2ccccc2F)s1)Nc1ccccc1F | inconclusive: 31.6 µM [inhibitor, single point] |
| O=C1CCCCC1Nc1ccc(Br)cc1 (centres undefined) | inactive |
| O=S(=O)(NCC1CCCO1)c1ccccc1F (centres undefined) | inactive |
| COc1ccc(C)cc1NC(=O)CN1CCN(c2ccccc2F)CC1 | inactive |
| O=C(Cn1cc(C(=O)c2ccco2)c2ccccc21)Nc1ccc(Br)cc1 | inconclusive: 35.5 µM [inhibitor, single point] |
| CC(C)C[C@H](CO)Nc1nc(Nc2cccc(Cl)c2)c2ncn(C(C)C)c2n1 | inconclusive: 22.4 µM [inhibitor, single point] |
| O=c1cc(N2CCCCCC2)[nH]c(=O)n1-c1ccccc1Cl | inconclusive: 35.5 µM [inhibitor, single point] |
| CCC1(C)Cc2c(sc3nnn(CC(=O)Nc4ccccc4C)c(=O)c23)CO1 (centres undefined) | inconclusive: 12.6 µM [inhibitor, partial curve, poor fit] |
| CC1CCN(S(=O)(=O)c2cn(CC(=O)Nc3cccc(C(F)(F)F)c3)c(=O)c3ccccc23)CC1 | active: 12.6 µM |
| O=C(CSc1ccccc1)N1CCc2c([nH]c3ccccc23)C1c1ccc(F)cc1 (centres undefined) | inconclusive: 11.2 µM [inhibitor, single point] |
| CSc1ncc2c(n1)-c1ccccc1N(Cc1ccc(Cl)cc1)S2(=O)=O | inactive |
| c1ccc2oc(SCc3nc4ccccc4s3)nc2c1 | inconclusive: 12.6 µM [inhibitor, partial curve, poor fit] |
| CCOC(=O)C(=O)NC(C)c1ccccc1 (centres undefined) | inconclusive: 0.631 µM [inhibitor, partial curve, poor fit] |
| O=C(NC1CCCCC1)c1ccc(Cn2c(SCc3ccccc3F)nc3cccnc32)cc1 | inconclusive: 35.5 µM [inhibitor, single point] |
| COc1cccc(C(=O)Nc2cccc(C(=O)OCc3cc(=O)n4nc(C5CC5)sc4n3)c2)c1 | inactive |
| CC(C)OC(=O)CC1C(=O)NCCN1C(=S)NC(=O)c1cccs1 (centres undefined) | inactive |
